# Measurements reported in the supplement of paper PMC3334620.
# Whole data set: some 33,000 sequences, median “E-score (-0.5 to 0.5)” near -0.01, cut for the highest 2% near 0.26. This is one part of the list.
# Target: Ste12 (UniProt P13574)
# Test: PBM E-score (8-mer binding enrichment) (E-score (-0.5 to 0.5)); higher = stronger / more preferred TF binding; most listed sequences are background and not binding sites
# Settings: protein concentration: 200 nM; construct: GST-DNA-binding domain
# Summary of the method: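 The E-score, a modified Wilcoxon-Mann-Whitney statistic, was computed by the Universal PBM Analysis Suite for every ungapped eight-base word pooled with its reverse complement. Scans behind it were normalised with masliner after bound GST-tagged yeast transcription factors were detected with fluorescent anti-GST. The proteins, at about 100-200 nM, had been applied to universal all-10-mer Agilent arrays made double-stranded by primer extension.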
row,Sequence,PBM E-score
1,CTGCTCTC,0.0432
2,GACGACCC,-0.0465
3,ACCAGAGC,0.101
4,AATGGAAC,-0.0117
5,AAGAATAG,0.132
6,AGTTGGTA,0.0136
7,ACTTGGCG,0.0439
8,GCGACCCC,0.0725
9,CGAAAGCG,-0.181
10,AACTCAAG,-0.00801
11,AGGGCTCC,-0.236
12,ATCTCATG,-0.0609
13,CCTTGTCG,-0.173
14,GGGACATA,0.0245
15,ACAATAGT,0.127
16,AAGAATAA,0.131
17,ACATCGGC,0.0795
18,GCATTCAC,0.0905
19,AACAGACG,-0.0377
20,AAACTTCG,-0.0281
21,GCAAAGAC,-0.0128
22,AATGCCAC,-0.0456
23,ACTTGGAA,-0.00351
24,ATCTGGCA,-0.0184
25,CCAGACGA,-0.141

row,Sequence,PBM E-score
1,ACGGCAAG,0.0378
2,GTCGTATA,-0.0884
3,AAGGAGCT,-0.283
4,CTACATGC,-0.123
5,ACAGTGTG,0.18
6,AGCGTGTA,-0.231
7,AATCTAGG,0.0839
8,GTGGGTGA,0.183
9,ACTGATGA,-0.053
10,GAAACCGA,0.267
11,CCTCAATC,0.0454
12,ACATAATA,0.222
13,CCAAAAGG,-0.194
14,GTTGATCA,0.00878
15,GAATAGAC,-0.0965
16,CCAGCAGA,-0.022
17,CTGCAAGC,-0.141
18,CATCGGAG,-0.2
19,CTGATCAA,-0.0287
20,GGCACGAA,0.035
21,CGTCGTAC,-0.218
22,ACTGGAGC,-0.328
23,CGACAAAC,-0.0263
24,AATTCAGA,0.0828
25,CAGATCTG,-0.14

row,Sequence,PBM E-score
1,AATTAAGT,0.118
2,CTTGGCAA,-0.262
3,CAATGCTG,-0.0877
4,GGAGTACA,-0.211
5,CACGGGGG,0.00781
6,TGACCTCA,-0.0719
7,CAAAAGCG,0.14
8,GGAATTCA,0.142
9,ACAAAACT,0.125
10,CGCTCAAA,-0.0172
11,GATAATTA,0.105
12,CACTGACG,-0.18
13,AAATAGGA,0.174
14,AGAGGGTA,-0.185
15,AACTGCTG,-0.0958
16,CGCAGCCG,-0.0899
17,CCGTTCTC,0.0324
18,AGCTACCG,-0.167
19,AGTGTACG,-0.0692
20,ATCCAATA,0.0549
21,CCCAACCC,0.136
22,CAGAACTA,0.0297
23,ACGCCACT,-0.0403
24,TAAGCGGA,-0.0964
25,CGTTAGCC,-0.085

row,Sequence,PBM E-score
1,GCATCAGA,0.0665
2,GTACCCTA,-0.0126
3,AACGTCTT,0.0794
4,GTCTGCCA,-0.046
5,ACGAAACA,0.327
6,ACTGGCCA,0.0116
7,GTCTCCGA,0.0356
8,AAATTAAA,0.206
9,AATCTGCC,0.0573
10,CGCTGACG,-0.188
11,TATGTGCA,-0.089
12,TATAAACA,0.114
13,CGCTGCAA,0.0221
14,AAGGCGCT,0.0428
15,CAGTTTGA,0.213
16,GCCGCTCC,-0.273
17,ACACCTGT,-0.049
18,GTCACAAA,0.132
19,AATTCTCT,-0.111
20,CCCCGGAG,0.0451
21,CGAAGGCG,-0.0132
22,GTGTCATA,0.194
23,ATCTAACC,0.0657
24,AGAGGACA,-0.205
25,CCCAACGG,0.0468

row,Sequence,PBM E-score
1,ATCGCGAC,0.0688
2,AGTTCGCA,-0.078
3,AACCGCAT,0.00925
4,ACCCGTTC,0.113
5,CCTGAGAG,-0.123
6,AAGCCACC,-0.236
7,CGAGCTAG,0.0329
8,ATGACAAA,0.136
9,AATTGGCT,-0.00062
10,CGTTTAAC,0.057
11,ACTAAACT,0.0724
12,CGAAGCGC,-0.0276
13,TACTCTCA,-0.00595
14,GATTGTGA,0.0985
15,GACAGCTC,-0.0523
16,GTTGAGCA,-0.085
17,GAAAGGAC,-0.0888
18,ATAGTTAA,0.0931
19,CCGAGCCC,-0.343
20,CGCCGGTC,-0.025
21,CCCTACCA,0.0153
22,TGGTCTAA,0.00287
23,CTACTGTA,0.0549
24,AAAATTGA,0.226
25,AGTTTGCC,0.139

row,Sequence,PBM E-score
1,GCGGCAGA,-0.128
2,CGAAAGGC,0.0466
3,GACAGGCC,-0.136
4,CAGTAACG,0.0492
5,TACCTCGA,0.0326
6,TCCCATAA,-0.00138
7,AACACAGT,0.0143
8,GCAGAGGA,-0.162
9,GGGCTGGA,-0.0197
10,CGTTCAAG,-0.146
11,ACAGTGGC,-0.145
12,AGCCCCAC,-0.0574
13,AAACTCGC,0.0875
14,AAGAGATC,-0.0503
15,CATCTACG,-0.0169
16,AGGTGCTC,-0.196
17,CCACTTAA,-0.0622
18,ACAGTTGC,-0.0387
19,ATTTACCA,0.0862
20,CCGCTTCC,0.102
21,CCCTGCAC,-0.098
22,GCATTAGA,-0.0431
23,GCGCCGAC,0.00467
24,CTACGGAA,-0.17
25,AACTTGAC,0.0624

row,Sequence,PBM E-score
1,TATGCCAA,-0.0467
2,CCGGTGAA,0.00286
3,CGGAGCTA,-0.0707
4,AGGTGGCA,0.00346
5,AGTGGAGC,-0.23
6,ATAAATCA,0.138
7,AAAGCCTC,-0.0838
8,AGGGAGTC,-0.25
9,AAGGTCGT,0.0159
10,GGATACCA,0.00755
11,GATACCGA,-0.124
12,GAGAGTAC,-0.168
13,ATTTGGCA,0.0883
14,GAGACTCA,-0.0789
15,CCACCGCC,0.0871
16,CCGTAGCC,-0.159
17,ACTTACTG,0.0461
18,CAATTGAC,-0.0478
19,CTCGAACA,0.0163
20,ACCGACCG,0.0445
21,AGTTCTAC,-0.141
22,CCATTGCA,0.0632
